Data from a collection of fitness landscapes (doi:10.1126/science.1257360).
This is one part of the list.

B1: PhoQ; a variant is named by its letters at X, in order, P23837 (parent)
chain: MKKLLRLFFPLSLRVRFLLATAAVVLVLSLAYGMVALIGYSVSFDKTTFRLLRGESNLFYTLAKWENNKLHVELPENIDKQSPTMTLIYDENGQLLWAQRDVPWLMKMIQPDWLKSNGFHEIEADVNDTSLLLSGDHSIQQQLQEVREDDDDAEMTHSVAVNVYPATSRMPKLTIVVVDTIPVELKSSYMVWSWFIYVLSANLLLVIPLLWVAAWWSLRPIEALAKEVRELEEHNRELLNPATTRELTSLVRNLNRLLKSERERYDKYRTTLTDLTHSLKTPLXXLQXXLRSLRSEKMSVSDAEPVMLEQISRISQQIGYYLHRASMRGGTLLSRELHPVAPLLDNLTSALNKVYQRKGVNISLDISPEISFVGEQNDFVEVMGNVLDNACKYCLEFVEISARQTDEHLYIVVEDDGPGIPLSKREVIFDRGQRVDTLRPGQGVGLAVAREITEQYEGKIVAGESMLGGARMEVIFGRQHSAPKDE

Variants of: B1
Assay: enrichment ratio after two sorts for PhoP signalling (ratio (wild type AVST 3.29)); higher = more functional
Conditions: with PhoP (E. coli)

Variant	enrichment ratio
TGEA	≤ 0.25
GMPL	≤ 0.25
NRHA	≤ 0.25
GGNY	≤ 0.25
VLTY	≤ 0.25
KTKY	≤ 0.25
NRKR	≤ 0.25
AGDS	≤ 0.25
TSLN	16.9
KASW	≤ 0.25
VAHA	≤ 0.25
ASYP	≤ 0.25
GEQF	≤ 0.25
TQPA	≤ 0.25
GMTK	≤ 0.25
QDII	≤ 0.25
HQNW	≤ 0.25
IHTM	≤ 0.25
HKCS	≤ 0.25
GSSM	11.2
PHRQ	≤ 0.25
AMGN	1.38
EGTW	≤ 0.25
NINW	≤ 0.25

Variant	enrichment ratio
ANDL	≤ 0.25
VMTC	≤ 0.25
DWMY	≤ 0.25
DMLT	≤ 0.25
GMIK	≤ 0.25
PDDR	≤ 0.25
VRTQ	≤ 0.25
TYSM	9.09
FRCS	≤ 0.25
DGYR	≤ 0.25
RCNI	≤ 0.25
WWCQ	≤ 0.25
KSWH	≤ 0.25
VQFF	≤ 0.25
WVHC	≤ 0.25
YWRS	≤ 0.25
KANQ	≤ 0.25
RQDP	≤ 0.25
LTMI	0.673
VIME	≤ 0.25
IMAP	≤ 0.25
GHEY	≤ 0.25
TALP	0.47
TVAE	≤ 0.25

Variant	enrichment ratio
PNNN	≤ 0.25
QTAF	0.654
ISRN	≤ 0.25
WTPW	≤ 0.25
KIQE	≤ 0.25
NWVS	≤ 0.25
LSEK	≤ 0.25
RDRA	≤ 0.25
INIG	≤ 0.25
SHFE	≤ 0.25
DSGI	≤ 0.25
KFKP	≤ 0.25
VIFY	≤ 0.25
WEVD	≤ 0.25
IVLV	0.964
PQQR	≤ 0.25
IPAT	≤ 0.25
NMNY	≤ 0.25
DNHF	≤ 0.25
QGYY	0.374
PSYW	≤ 0.25
FMQI	≤ 0.25
SHAG	≤ 0.25
AFYF	≤ 0.25

Variant	enrichment ratio
NMFM	≤ 0.25
DRTK	≤ 0.25
VLGV	≤ 0.25
PKTS	≤ 0.25
SAIR	≤ 0.25
YRKI	≤ 0.25
FNEI	≤ 0.25
VMHR	≤ 0.25
KQWS	≤ 0.25
FVVI	≤ 0.25
MSAQ	9.85
SVCL	11
ATFG	≤ 0.25
ESYK	≤ 0.25
RALC	≤ 0.25
LANN	≤ 0.25
MNGL	9.61
YVEF	≤ 0.25
TIYA	0.91
KNAG	≤ 0.25
EFHM	≤ 0.25
VPFK	≤ 0.25
NGKP	≤ 0.25
DWEL	≤ 0.25

Variant	enrichment ratio
SGRW	≤ 0.25
VEPV	≤ 0.25
PIHY	≤ 0.25
KPTM	≤ 0.25
NDVI	≤ 0.25
IDDH	≤ 0.25
VKAF	≤ 0.25
WRWR	≤ 0.25
WMLY	≤ 0.25
RMPF	≤ 0.25
YILH	0.669
YIMM	≤ 0.25
DEAT	≤ 0.25
VLSN	≤ 0.25
DDLV	≤ 0.25
DDMI	≤ 0.25
GWWI	≤ 0.25
QHVI	≤ 0.25
FSTK	≤ 0.25
FMVR	≤ 0.25
MQGF	≤ 0.25
QQFG	20.2
TMGW	≤ 0.25
APIA	≤ 0.25

Variant	enrichment ratio
QKFI	0.998
TDTK	≤ 0.25
FEYE	≤ 0.25
DPNM	≤ 0.25
SYNM	≤ 0.25
IGMD	≤ 0.25
NSWR	≤ 0.25
LPTT	≤ 0.25
RLKA	≤ 0.25
FLHG	≤ 0.25
FNTS	≤ 0.25
FSHK	≤ 0.25
KRNF	≤ 0.25
SNLW	7.18
IIRC	≤ 0.25
ESRV	≤ 0.25
LLGP	≤ 0.25
NAWL	≤ 0.25
DDWE	≤ 0.25
YESA	≤ 0.25
DDQC	≤ 0.25
ESKN	≤ 0.25
VWMF	≤ 0.25
NRIL	≤ 0.25

Variant	enrichment ratio
YKPD	≤ 0.25
LDSY	≤ 0.25
RPVH	≤ 0.25
HQFW	≤ 0.25
FALP	≤ 0.25
FKNM	≤ 0.25
FATR	≤ 0.25
DQNW	≤ 0.25
HQCQ	≤ 0.25
PEYG	≤ 0.25
PLWC	≤ 0.25
MSHD	≤ 0.25
ENFS	≤ 0.25
AYLP	≤ 0.25
TCPL	≤ 0.25
RGRW	≤ 0.25
YNRQ	≤ 0.25
DQST	≤ 0.25
FHET	≤ 0.25
WRFD	≤ 0.25
DTSV	≤ 0.25
YTSA	≤ 0.25
PYHR	≤ 0.25
WRSV	≤ 0.25

Variant	enrichment ratio
LYLH	≤ 0.25
VIYA	≤ 0.25
LIAY	≤ 0.25
ARCM	8.7
KLSP	≤ 0.25
YHQK	≤ 0.25
WNNI	≤ 0.25
APSM	≤ 0.25
MMRI	≤ 0.25
EYAK	≤ 0.25
LENI	≤ 0.25
IIDP	≤ 0.25
LAET	≤ 0.25
QGVN	≤ 0.25
GWFK	≤ 0.25
KRQM	≤ 0.25
AQFQ	≤ 0.25
LFRK	≤ 0.25
IHEP	≤ 0.25
SWVV	≤ 0.25
RQPF	≤ 0.25
VNWD	≤ 0.25
QKHM	≤ 0.25
FEGF	≤ 0.25

Variant	enrichment ratio
WDQW	≤ 0.25
LLFF	≤ 0.25
VWLH	≤ 0.25
PPDW	≤ 0.25
LAWA	≤ 0.25
GLPE	≤ 0.25
NFIN	≤ 0.25
WEKS	≤ 0.25
TFMC	16.5
PNYC	≤ 0.25
APSI	≤ 0.25
TMKL	≤ 0.25
HFLK	≤ 0.25
QFYA	≤ 0.25
IWAM	≤ 0.25
FRLR	≤ 0.25
MEND	≤ 0.25
GPTR	≤ 0.25
KMHW	≤ 0.25
AWLN	≤ 0.25
KPCM	≤ 0.25
ADPF	≤ 0.25
KHMC	≤ 0.25
SREE	≤ 0.25

Variant	enrichment ratio
HCAH	≤ 0.25
DWVI	≤ 0.25
QQDP	≤ 0.25
LRSG	≤ 0.25
ATPK	≤ 0.25
IALH	≤ 0.25
RKRA	≤ 0.25
MNHE	≤ 0.25
AKMH	12
SHWP	≤ 0.25
SQKR	≤ 0.25
LAWW	≤ 0.25
SVFK	≤ 0.25
FECH	5.62
HSKF	≤ 0.25
IRQM	≤ 0.25
SDLD	≤ 0.25
HNPL	≤ 0.25
VQSI	≤ 0.25
QYPA	≤ 0.25
LYGP	≤ 0.25
HGSR	≤ 0.25
PKKS	≤ 0.25
SAAV	8.96

Variant	enrichment ratio
MAHM	14.7
VTFG	≤ 0.25
ITPP	≤ 0.25
ESSY	≤ 0.25
WPNV	≤ 0.25
GFRM	≤ 0.25
INLR	≤ 0.25
KPPL	≤ 0.25
MNGR	≤ 0.25
VKDW	≤ 0.25
PPSD	≤ 0.25
AWPV	≤ 0.25
DIQS	≤ 0.25
IYPQ	≤ 0.25
DVVG	≤ 0.25
PMTL	≤ 0.25
SEGP	≤ 0.25
AWCA	≤ 0.25
GSMN	1.58
NPQS	≤ 0.25
QNTF	≤ 0.25
LQYK	≤ 0.25
TPYK	≤ 0.25
NDRM	≤ 0.25

Variant	enrichment ratio
LMAF	≤ 0.25
QEVD	≤ 0.25
LWRS	≤ 0.25
HECT	26.3
RCHF	≤ 0.25
YPPW	≤ 0.25
RKCQ	≤ 0.25
HSCW	≤ 0.25
RVGS	≤ 0.25
PQRL	≤ 0.25
APST	≤ 0.25
APHI	≤ 0.25
IKQR	≤ 0.25
KIAP	≤ 0.25
GNSS	5.64
DYYS	≤ 0.25
QELV	≤ 0.25
EGSY	≤ 0.25
IHLA	≤ 0.25
KKNS	≤ 0.25
HAPD	≤ 0.25
YYHS	≤ 0.25
ENAN	≤ 0.25
SHQK	≤ 0.25

Variant	enrichment ratio
NLAT	≤ 0.25
DHVT	≤ 0.25
QIDG	11
SPGG	≤ 0.25
TSQE	5.31
DTGM	≤ 0.25
FHDK	≤ 0.25
HRQQ	≤ 0.25
RCEF	≤ 0.25
PDAR	≤ 0.25
IKEI	≤ 0.25
CPEI	≤ 0.25
GMLG	7.81
LHAN	≤ 0.25
KCFI	≤ 0.25
MHWA	≤ 0.25
AVSK	16.9
DGDM	≤ 0.25
